Source: PubChem BioAssay AID1345082 (National Center for Advancing Translational Sciences (NCATS), 2018)
About 4,000 (4.3%) of roughly 94,000 compounds were called active. Inconclusive results, whose numbers are uncertain, are shown with a selection of clear calls. Calls come from the whole dose curve; as a rule, active = well fitted inhibition curve with a large enough effect; inconclusive = small, poorly fitted or top-dose-only effect; inactive = no such curve, though single readings can be large or run the other way. Where the call is inconclusive, the potency comes from a doubtful curve fit.

assay: Cytotoxic Profiling in NIH 3T3 Cell Line of Diverse Libraries Using Quantitative High-Throughput Screening; settings: NIH 3T3 viability, CellTiter-Glo ATP luminescence, 48-72 h; series mostly up to 96.7 µM; note: nearly all actives have a fitted effect of over 55% in size
In short: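 Cytotoxicity is measured as loss of cellular ATP: NIH 3T3 cells (400/well) are exposed to compound for 48 or 72 hr at 37 °C, then CellTiter-Glo luminescence is imaged after 10 min at room temperature.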
Potency is the fitted concentration of half-maximal effect; tags give direction and shape of the fitted curve.

Compound | Potency
COc1ccccc1C(=O)N1CCCN(c2cc(-c3ccc(Br)cc3)[nH]n2)CC1 | inconclusive: 39.8 µM [inhibitor, partial curve, poor fit]
Cc1cc2ncc(C(=O)N3CCN(C)CC3)cn2n1 | inactive
COCCN1C(=O)c2ccccc2C(C(=O)Nc2nc(C)c(C)s2)C12CCCCC2 (configuration not stated) | inconclusive: 15.8 µM [inhibitor, partial curve, poor fit]
CC1(c2ccccc2)N(Cc2ccccc2)C(=O)OC12CCN(C(=O)Cc1ccc(O)cc1)CC2 (configuration not stated) | active: 6.31 µM
COCc1ccc2c(c1)c(OC(C)(C)C(=O)NCCc1cccnc1)nn2Cc1ccccc1 | inconclusive: 50.1 µM [inhibitor, partial curve, poor fit]
O=C(NC1CCCN(c2cc(-c3ccc(F)cc3)[nH]n2)C1)c1ccc(C(F)(F)F)cc1 (configuration not stated) | inactive
CC(C)(C)c1cc(C[C@@H]2C[C@H](NCc3ccccn3)C2(C)C)no1 | active: 50.1 µM
CCCN(CC1CCOC1)S(=O)(=O)Cc1ccccc1 (configuration not stated) | inconclusive: 70.8 µM [inhibitor, single point]
O=C(NCCN1CCOCC1)c1cn2cc(-c3ccc(C(F)(F)F)cc3)sc2n1 | inactive
Cc1ccc(-n2c(C3CCN(C(=O)Cc4ccccc4)CC3)n[nH]c2=O)cc1 | inconclusive: 44.7 µM [inhibitor, partial curve, poor fit]
COc1ccc(-c2cc(N3CCCC(NC(=O)c4ccc(OC)c(F)c4)C3)n[nH]2)cc1 (configuration not stated) | inconclusive: 39.8 µM [inhibitor, partial curve, poor fit]
COc1ccc(N2CC(c3noc(-c4cccc(OC)c4)n3)CC2=O)cc1 (configuration not stated) | inconclusive: 44.7 µM [inhibitor, partial curve, poor fit]
Cn1nccc1C(=O)N1C[C@@H](COc2ccccc2)[C@H](C(N)=O)C1 | inactive
O=C(NCc1ccccc1)C1CCN(C(=O)c2ccc(-c3cccs3)cc2)CC1 | inconclusive: 39.8 µM [inhibitor, partial curve]
O=C(CCC[C@H]1NC[C@@H]2C[C@H]1CN(Cc1ccccc1)C2)Nc1cccc(F)c1 | inconclusive: 50.1 µM [inhibitor, partial curve, poor fit]
COc1ccc(CN2CC3(CCN(S(=O)(=O)Cc4ccccc4)CC3)C2=O)cc1 | inconclusive: 44.7 µM [inhibitor, partial curve, poor fit]
CCOC(=O)C1(Cc2ccc(Cl)cc2)CCNCC1 | inconclusive: 79.4 µM [inhibitor, partial curve, poor fit]
